# PubChem BioAssay (NCATS)
# Inconclusive results, whose numbers are uncertain, are shown with a selection of clear calls. For some assays here: Potencies of inconclusive entries are doubtful fits and often do not repeat. For some assays here: “Side channel” marks fits to a control or component signal instead of the main read-out. Activity calls are given as the source filed them. Unless noted, calls come from the whole dose curve; as a rule, active = well fitted curve in the direction sought with a large enough effect; inconclusive = small, poorly fitted or top-dose-only effect, or another doubt; inactive = no such curve, though single readings can be large; an effect the other way counts as inactive or inconclusive.
# Tests used:
# [1] = molecular target: Muscarinic acetylcholine receptor M1 (Rattus norvegicus) (UniProt P08482); assay: qHTS Assay for Antagonists of Acetylcholine Muscarinic M1 Receptor: Measurement of IP-One Response (AID 944); note: nearly all actives have a fitted effect of over 75% in size; note: potency is the fitted concentration of half-maximal effect
# [2] = molecular target: Ferritin light chain (Equus caballus) (UniProt P02791); assay: qHTS Validation Assay for Identification of Novel General Anesthetics (AID 2323); note: potency is the fitted concentration of half-maximal effect
# Procedure, shortened: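 Horse-spleen apoferritin (10 uM) in PBS with 50% saturated 1-aminoanthracene; compounds pin-transferred, 10 min at room temperature. Fluorescence read at 380/535 nm, normalized to free 1-AMA and 1-AMA/apoferritin values; four-parameter Hill fit.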
# [3] = molecular target: Thioredoxin reductase 1, cytoplasmic (Rattus norvegicus) (UniProt O89049); assay: qHTS Assay for Inhibitors of Mammalian Selenoprotein Thioredoxin Reductase 1 (TrxR1) (AID 488773); conditions: Potency: inhibition; note: nearly all actives have a fitted effect of over 40% in size; note: potency is the fitted concentration of half-maximal effect;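 for activity change, negative = inhibition: drop in NADPH fluorescence over an 8 min run after selenite addition; % is set by controls: 0 for no effect and ±100 for the full control effect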
# Procedure, shortened: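 Inhibition is scored from the loss of NADPH fluorescence between first and last reads of an 8-min kinetic run. Selenite (400 uM) was the substrate, added after 15 min compound preincubation at room temperature.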
# [4] = molecular target: D(1A) dopamine receptor (Homo sapiens) (UniProt P21728); assay: HTS Assay for Allosteric Agonists of the Human D1 Dopamine Receptor: Primary Screen for Antagonists (AID 488983); conditions: D1 receptor cell assay, antagonist mode, qHTS titration; activity change, negative = inhibition: at 41.8 µM (top of the series);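 note: calcium flux response to an EC80 dopamine challenge measured with no-wash dye; potency is the fitted concentration of half-maximal effect; nearly all actives have a fitted effect of over 65% in size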
# Procedure, shortened: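 In this primary screen, compounds are applied to calcium-dye-loaded HEK293 T-REx cells with force-coupled D1 expression induced overnight at 30 C. An EC80 of dopamine follows the 180 s compound phase, and calcium is monitored for a further 180 s.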
# [5] = molecular target: Peptidyl-prolyl cis-trans isomerase NIMA-interacting 1 (Homo sapiens) (UniProt Q13526); assay: qHTS Validation Assay to Find Inhibitors of Pin1 (AID 504536; active = well fitted inhibition curve with a large enough effect in the polarisation, with a control signal flat, not every such curve was filed as active; inconclusive = small, poorly fitted or top-dose-only effect, or effect the other way; the % refers to the polarisation; note: potency is the fitted concentration of half-maximal effect)
# Procedure, shortened: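 Fluorescence polarization competition: compounds (titration) displace HiFluor-488-labeled Pin1-1b peptide from Pin1 (0.3 uM final) in pH 7.5 HEPES buffer with DTT, 10 min at room temperature; %Activity normalized to no-enzyme wells, curves fitted.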
# [6] = qHTS for differential inhibitors of proliferation of Plasmodium falciparum line GB4 (AID 1816); conditions: Potency: Plasmodium falciparum GB4 proliferation inhibition;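 note: parasite growth measured after 72 h incubation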; note: potency is the fitted concentration of half-maximal effect;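 for activity change, negative = inhibition: 0% = vehicle DMSO and -100% = reference inhibitor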
# [7] = qHTS for differential inhibitors of proliferation of Plasmodium falciparum line 3D7 (AID 1876); note: potency is the fitted concentration of half-maximal effect
# [8] = molecular target: Glutaminase kidney isoform, mitochondrial (Homo sapiens) (UniProt O94925); assay: qHTS for Inhibitors of Glutaminase (GLS): LOPAC Validation (AID 624146); note: nearly all actives have a fitted effect of over 60% in size; note: potency is the fitted concentration of half-maximal effect;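 for activity change, negative = inhibition: glutamate product detected by oxidase and peroxidase coupled Amplex red fluorescence gain; % is set by controls: 0 for no effect and ±100 for the full control effect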
# Procedure, shortened: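 Read-out is an Amplex red fluorescence increase coupled through glutamate oxidase and HRP, measured before and after 30 min room-temperature incubation. hKGA is in 45 mM KH2PO4 (pH 8.2) with 0.02% Tween-20; glutamine added as 1mM solution.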
# [9] = molecular target: N-terminal Xaa-Pro-Lys N-methyltransferase 1 (Homo sapiens) (UniProt Q9BV86); assay: qHTS Assay for Inhibitors of N-terminal methyltransferase 1 (NTMT1): LOPAC validation of the NTMT1 SAHH-coupled ThioGlo3 Assay (AID 1347143);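 note: SAH from peptide methylation measured as thiol fluorescence via SAHH coupling and ThioGlo3; nearly all actives have a fitted effect of over 70% in size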; note: potency is the fitted concentration of half-maximal effect; for activity change, negative = inhibition: % is set by controls: 0 for no effect and ±100 for the full control effect
# Procedure, shortened: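 In this qHTS pilot against the LOPAC set, 125nM NTMT1 met compounds tested at multiple concentrations, and fluorescence was normalized to background.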
# [10] = qHTS for differential inhibitors of proliferation of Plasmodium falciparum line D10 (AID 1877);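 note: parasites grown with compound for 72 h before DNA staining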; note: potency is the fitted concentration of half-maximal effect;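 for activity change, negative = inhibition: plate controls were vehicle wells for no effect and reference inhibitor wells for full effect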
# [11] = qHTS for differential inhibitors of proliferation of Plasmodium falciparum line Dd2 (AID 1882); conditions: Potency: Plasmodium falciparum Dd2 proliferation inhibition; note: nearly all actives have a fitted effect of over 65% in size; note: potency is the fitted concentration of half-maximal effect;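 for activity change, negative = inhibition: compound exposure of 72 h on infected erythrocytes; plate controls were DMSO vehicle for no effect and 0.29 µM artemisinin for full effect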
# Procedure, shortened: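 RBC culture, 0.3% parasitemia / 2.5% Hct final; cpd added by pin tool in DMSO; 72 h, 37 C, 5% CO2; lysis buffer + SYBR Green I, o/n RT dark; FI 485/535; norm. to artemisinin 0.29 uM and DMSO.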
# [12] = Cytometric Cell-Based qHTS for Inhibitors of the mTORC1 Signaling Pathway in MEF (Tsc2-/-, p53-/-) Cells (AID 2660); note: potency is the fitted concentration of half-maximal effect;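 for activity change, negative = inhibition: Tsc2 and p53 null MEFs carrying empty vector with compound for 24 h; percent of cells above a phospho-rpS6 to PI ratio cutoff in each well; plate controls were DMSO for no effect and rapamycin for full effect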
# Procedure, shortened: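 Readout: Alexa-488 phospho-rpS6 (Ser235/236) intensity divided by PI intensity, thresholded against 7.5 nM rapamycin wells and reported as % positive cells. PI cell count served as the viability measure. Compound exposure was 24 hrs at 37 degree Celsius.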
# Papain (Carica papaya) = Papain (Carica papaya) (UniProt P00784); assay: Primary qHTS assay for inhibitors of the protease papain (AID 1645873);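 note: papain turnover of Z-FR-AMC read as the AMC fluorescence gain over 10 min; potency is the fitted concentration of half-maximal effect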
# [13] = molecular target: Phospholipid hydroperoxide glutathione peroxidase GPX4 (Homo sapiens) (UniProt P36969); assay: Primary qHTS Assay for Inhibitors of Recombinant Selenoprotein Glutathione Peroxidase 4 (GPX4) (AID 1845192); conditions: activity change, negative = inhibition: at 50 µM (top of the series) unless noted; note: potency is the fitted concentration of half-maximal effect; nearly all actives have a fitted effect of over 65% in size
# Procedure, shortened: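 qHTS, GR-coupled: GPX4 200 nM + cpd 30 min RT → GSH 1 mM, NADPH 0.5 mM, GR 100 nM → CHP 0.5 mM start; fluor 340/450 at t0 and t15 min; no-enzyme wells as control.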
# [14] = molecular target: Chromobox protein homolog 1 (Homo sapiens) (UniProt P83916); assay: qHTS Validation Assay for Inhibitors of HP1-beta Chromodomain Interactions with Methylated Histone Tails (AID 488953); note: potency is the fitted concentration of half-maximal effect; nearly all actives have a fitted effect of over 50% in size
# Procedure, shortened: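 Compounds pinned into a preassembled complex of HP1-beta and trimethyl-K9 histone H3(1-18) biotin peptide (50 nM each; PBS pH 7.4, 0.01% Tween-20). After 30 min, bead-based AlphaScreen detection followed.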
# [15] = qHTS Assay for Identifying Gametocytocidal Compounds (AID 743244); note: potency is the fitted concentration of half-maximal effect;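 for max response: % is set by controls: 0 for no effect and ±100 for the full control effect; actives lower the fluorescent signal which means gametocytes are killed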; conditions: P. falciparum 3D7 stage III-V gametocytes, alamarBlue, 72 h; max response: active compounds read low
# Procedure, shortened: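 P. falciparum 3D7 stage III–V gametocytes (20,000 cells/well) were exposed to compounds for 72 h at 37 °C, 5% CO2. AlamarBlue was then added for 24 h; decreased resorufin fluorescence (Ex 525/Em 598 nm) indicated loss of viability.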
# [16] = qHTS Assay for Identification of Small Molecule Antagonists for NFkB Signaling Pathway (AID 895; active = well fitted inhibition curve with a large enough effect in the signal ratio, with a control signal flat, not every such curve was filed as active; inconclusive = small, poorly fitted or top-dose-only effect, or effect the other way, or a change in a side signal; the % refers to the signal ratio; note: % is set by controls: 0 for no effect and ±100 for the full control effect); conditions: NFkB beta-lactamase reporter cells, FRET ratio 460/530, stimulated with 10 pM TNF alpha; activity change, negative = inhibition: at 38.3 µM (top of the series)
# Procedure, shortened: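 NFkB-bla ME-180 cervical carcinoma cells with beta-lactamase reporter under NFkB response element; compounds added, then TNF alpha at 10 pM final (EC50), 5 h at 37 C. LiveBLAzer substrate 2 h, room temperature; emission 460/530 nm at 405 nm excitation.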
# [17] = qHTS Assay for Identification of Small Molecule Antagonists for Thrombopoietin (TPO) Signaling Pathway (AID 918); conditions: TPO-dependent cell signaling reporter, antagonist mode; activity change, negative = inhibition: at 38.5 µM (top of the series); note: nearly all actives have a fitted effect of over 60% in size
# Procedure, shortened: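 Antagonist mode at EC50 TPO (26 pM) in IL-3-free medium; murine Ba/F3 cells with human TPO receptor and GPIIb-promoter luciferase, 24 hrs at 37 C before luminescent detection.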
# [18] = qHTS for differential inhibitors of proliferation of Plasmodium falciparum line 7G8 (AID 1815);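 note: potency is the fitted concentration of half-maximal effect; parasite growth measured after three days of incubation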
# Tags give direction and shape of the fitted curve or compound fluorescence and quenching.
structure (smiles),measurement,setting,value
CC(C)(C)c1cc(/C=C(\C#N)C(N)=S)cc(C(C)(C)C)c1O,Potency,[1],"inconclusive: 3.98 µM [inhibitor, full curve, poor fit]"
same,Potency,[2],"inconclusive: 12.6 µM [inhibitor, full curve]"
same,Potency,[3],"inconclusive: 21.2 µM [inhibitor, partial curve]"
same,Potency,[4],"inconclusive: 31.6 µM [activator, single point]"
same,Potency,[5],"inconclusive: 23.9 µM [fluorescent, side channel, partial curve]"
CCCCCCCCCCCCCCCCCCOC[C@H](COP(=O)([O-])OCC[N+](C)(C)C)OC,Potency,[6],inactive
same,Potency,[7],inactive
same,Potency,[2],"inconclusive: 20 µM [inhibitor, full curve]"
O=c1oc(Cl)c(Cl)c2ccccc12,Potency,[1],inactive
same,Potency,[8],inactive
same,Potency,[9],active: 50.1 µM
S=C(S)OC1CC2CC1C1CCCC21 (stereo unspecified),Potency,[10],inactive
same,Potency,[2],active: 17.8 µM
same,Potency,[8],"inconclusive: 11.2 µM [inhibitor, partial curve, poor fit]"
CC12C(=O)OC(=O)C1(C)C1CCC2O1 (stereo unspecified),Potency,[6],active: 4.47 µM
same,Potency,[11],active: 4.47 µM
same,Potency,[12],"inconclusive: 14.7 µM [falling, single point]"
CCCC1(C)C(C#N)(C#N)C1(C#N)C#N,Potency,[12],"inconclusive: 1.85 µM [falling, full curve]"
COc1cc(/C=C(\C#N)C(=O)Nc2nnc(C(F)(F)F)s2)ccc1OCc1ccc(C(F)(F)F)cc1C(F)(F)F,Potency,[5],active: 23.9 µM
same,Potency,[9],active: 56.2 µM
same,Potency,Papain (Carica papaya),"inconclusive: 25.1 µM [inhibitor, single point]"
same,Potency,[13],"inconclusive: 4.53 µM [inhibitor, full curve]"
Clc1ccc(N2CCN(Cc3cc4ccccn4n3)CC2)cc1,Potency,[3],inactive
same,Potency,[14],"inconclusive: 50.1 µM [inhibitor, partial curve]"
same,Potency,[9],"inconclusive: 56.2 µM [inhibitor, partial curve, poor fit]"
C=CC(=O)c1ccc(CCCCCC)cc1,Potency,[14],"inconclusive: 0.212 µM [inhibitor, full curve, poor fit]"
same,Potency,[4],"inconclusive: 12.6 µM [inhibitor, partial curve]"
same,max response,[15],inactive: 6.31%
CN(C)c1nc(N)c(C(=O)N=C(N)N)nc1Cl,"activity change, negative = inhibition",[16],inconclusive: 38.7%
same,"activity change, negative = inhibition",[17],inconclusive: -6.91% [phenotype inactive]
same,Potency,[18],"inconclusive: 12.6 µM [inhibitor, single point]"
same,Potency,[8],inactive
same,Potency,[9],"inconclusive: 35.5 µM [inhibitor, partial curve, poor fit]"
CCCCC/C=C\CC(O)/C=C/c1cccc(CC(O)CCCCO)n1 (stereo unspecified),Potency,[18],"inconclusive: 5.01 µM [inhibitor, partial curve, poor fit]"
same,Potency,[6],"inconclusive: 14.1 µM [inhibitor, partial curve, poor fit]"
same,Potency,[10],"inconclusive: 12.6 µM [inhibitor, partial curve]"
same,Potency,[11],inactive
same,Potency,[3],"inconclusive: 23.8 µM [inhibitor, single point]"
same,Potency,[15],"inconclusive: 3.16 µM [inhibitor, partial curve]"
NS(=O)(=O)C#Cc1ccccc1,Potency,[12],"inconclusive: 20.7 µM [falling, single point]"
same,Potency,[9],inactive
CN1C2CCC1CC(OC(c1ccccc1)c1ccccc1)C2 (stereo unspecified),Potency,[11],active: 4.47 µM
same,Potency,[5],"inconclusive: 37.9 µM [falling, partial curve, poor fit]"
same,Potency,[9],"inconclusive: 50.1 µM [inhibitor, partial curve, poor fit]"
CCOC(=O)C1=C(C)NC(C)=C(C(=O)OCC)C1c1c(F)c(F)c(F)c(F)c1F,Potency,[12],"inconclusive: 16.5 µM [falling, single point]"
same,Potency,[4],"inconclusive: 31.6 µM [activator, single point]"
same,Potency,Papain (Carica papaya),active: 25.1 µM
COc1ccccc1N1CCN(CCN(C(=O)c2ccc(I)cc2)c2ccccn2)CC1,Potency,[14],"inconclusive: 39.8 µM [inhibitor, partial curve]"
COc1cc(OC)c(/C=C2/C(=O)Nc3ccccc32)c(OC)c1,Potency,[16],inactive
same,Potency,[8],"inconclusive: 1.26 µM [inhibitor, full curve, poor fit]"
same,Potency,[9],"inconclusive: 56.2 µM [inhibitor, partial curve]"
same,Potency,Papain (Carica papaya),"inconclusive: 15.8 µM [inhibitor, partial curve, poor fit]"
Fc1cccc(/C=N/N=C/c2cccc(F)c2)c1,Potency,[7],"inconclusive: 10 µM [inhibitor, single point]"
same,Potency,[12],inactive
same,Potency,[4],"inconclusive: 17.8 µM [activator, partial curve]"
same,Potency,[9],"inconclusive: 17.8 µM [inhibitor, partial curve, poor fit]"
